This is one part of the list. Further columns of the screen follow, without active or inactive calls.

Holding throughout (test): Primary Screen for Target Class Profiling of Small Molecule Inhibitors of Methyltransferases
Assay [1] addresses Glycine N-methyltransferase (Homo sapiens) (UniProt Q14749). To be noted: purified enzyme, MTase-Glo SAH luminescence; measured here: GNMT inhibition; at 40 µM; stronger effect = lower value. The gist of the method: (§1)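 Each enzyme was reacted with SAM and its substrate, with compounds tested once at 40 uM; SAH formed was read by MTase-Glo luminescence.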
Assay [2] concerns the target Guanidinoacetate N-methyltransferase (Homo sapiens) (UniProt Q14353). The settings on record: purified enzyme, MTase-Glo SAH luminescence; measured here: GAMT inhibition; at 40 µM; stronger effect = lower value. The method, boiled down:
as §1

In assay [3] the target is Histamine N-methyltransferase (Homo sapiens) (UniProt P50135). To be noted: purified enzyme, MTase-Glo SAH luminescence; measured here: HNMT inhibition; at 40 µM; stronger effect = lower value. The gist of the method: as §1
The target of assay [4] is Nicotinamide N-methyltransferase (Homo sapiens) (UniProt P40261). The settings on record: purified enzyme, MTase-Glo SAH luminescence; measured here: NNMT inhibition; at 40 µM; stronger effect = lower value. The gist of the method: as §1
For assay [5], the target named is Phenylethanolamine N-methyltransferase (Homo sapiens) (UniProt P11086). To be noted: purified enzyme, MTase-Glo SAH luminescence; measured here: PNMT inhibition; at 40 µM; stronger effect = lower value. The gist of the method:
as §1
% is scaled to controls: 0 for no effect and ±100 for the full control effect.

Consider `Cc1ccc(-c2cc(C(=O)NCc3cccs3)nn3cnnc23)cc1`, for which the activity change, negative = inhibition in assay [1] is -6.1%; in assay [2] it was -3.76%; in assay [3] it was -3.96%; in assay [4], -12.3%; in assay [5], -11%.

Regarding `Cc1ccc(NC(=O)N2CCC(c3nc(CCOCC4CC4)no3)C2)cc1C` (stereo not given), the activity change, negative = inhibition in assay [1] is -3.4%; in assay [2], 0.726%; in assay [3] it was 0.408%; in assay [4], -2.91%; in assay [5], 1.14%.

`O=S(=O)(NCCn1c(CCc2ccccc2)nc2ccccc21)c1ccccc1`: the activity change, negative = inhibition in assay [1] was -1.91%; in assay [2] it was 3.96%; in assay [3], -2.92%; in assay [4], -6.21%; in assay [5], 2.19%.

With `CCOC(=O)c1cc2n(n1)CC(C)(C(=O)NCc1ccccc1)N(c1cccc(SC)c1)C2=O` (stereo not given), the activity change, negative = inhibition in assay [1] was -1.86%; in assay [2], 1.47%; in assay [3], -5.84%; in assay [4], -8.19%; in assay [5], -4.76%.

As for `COC(=O)c1ccc(NC(=O)N2Cc3c(sc4c3CCCC4)-n3cccc3C2c2cc(F)cc(F)c2)cc1` (stereo not given), the activity change, negative = inhibition in assay [1] was 0.802%; in assay [2], 0.749%; in assay [3], -2.75%; in assay [4] it was -5.22%; in assay [5], 5.33%.

As for `Cc1cccc(-c2cn[nH]c2C2CCN(C(=O)c3cc(=O)[nH]c(=O)[nH]3)CC2)c1`, the activity change, negative = inhibition is -8.15% in assay [1]; -8.41% in assay [2]; -2.17% in assay [3]; -13.3% in assay [4]; -8.22% in assay [5].

As to `COc1cc(O)cc(/C=C/c2cccc(O)c2)c1`, the activity change, negative = inhibition was -7.6% in assay [1]; -7.24% in assay [2]; 0.913% in assay [3]; -27.7% in assay [4]; -1.7% in assay [5].

As to `O=C(NC1CC(=O)N(CCCc2ccccc2)C1)c1ccoc1` (stereo not given), the activity change, negative = inhibition is -6.24% in assay [1]; -12.7% in assay [2]; -6.91% in assay [3]; -14.6% in assay [4]; -10.6% in assay [5].

As to `COc1ccc(C(=O)NCCn2c(C)cnc2-c2ccccc2)cn1`, the activity change, negative = inhibition in assay [1] is -4%; in assay [2], -8.06%; in assay [3] it was -5.78%; in assay [4], -1.78%; in assay [5] it was -8.65%.

`CNC(=O)[C@@H]1C[C@H](Oc2ccccc2)CN1S(=O)(=O)c1ccc2c(c1)CCC2`: the activity change, negative = inhibition in assay [1] was -2%; in assay [2] it was -1.65%; in assay [3] it was 1.17%; in assay [4] it was -0.642%; in assay [5] it was 0.646%.

`COc1ccc(N2C(=O)CSc3c(c4ccccc4n3C)C2C(=O)NCCCOC(C)C)cc1` (stereo not given): the activity change, negative = inhibition in assay [1] is -1.2%; in assay [2] it was -5.64%; in assay [3] it was 2.23%; in assay [4] it was -3.53%; in assay [5], -0.921%.

For the compound `COCCOc1ccc(N2CCN(CCn3ncc4c3nc(N)n3nc(-c5ccco5)nc43)CC2)cc1`, the activity change, negative = inhibition was -1.68% in assay [1]; -9.09% in assay [2]; -1.95% in assay [3]; -18.8% in assay [4]; -6.23% in assay [5].

For the compound `Cc1c(Cl)cccc1NC(=O)c1ncn2c1C(=O)N(C1CC1)C(C)(C(=O)NCCCOC(C)C)C2` (stereo not given), the activity change, negative = inhibition in assay [1] was -2.4%; in assay [2] it was 0%; in assay [3], 10.5%; in assay [4], 4.63%; in assay [5], 2.11%.

With `CCN1C(=O)c2cc(C(=O)Nc3ccc(C(C)C)cc3)nn2CC1(C)C(=O)NC1CCCC1` (stereo not given), the activity change, negative = inhibition in assay [1] is -4.21%; in assay [2], -0.103%; in assay [3] it was -10.9%; in assay [4], -2.03%; in assay [5], -3.04%.

As to `COc1ccc(NS(=O)(=O)c2cc3c(cc2C)n(C)c(=O)n3C)cc1OC`, the activity change, negative = inhibition in assay [1] was 3.4%; in assay [2], 0%; in assay [3], 7.75%; in assay [4], -0.513%; in assay [5], 3.73%.

Consider `C[S+](=O)([O-])NCc1nnc2n1C(C(=O)NCc1ccc(Cl)cc1)CC2` (stereo not given), for which the activity change, negative = inhibition in assay [1] is -7.72%; in assay [2], -7.34%; in assay [3] it was -10.3%; in assay [4], -16.7%; in assay [5], -5.15%.

For `Cc1cc(OCc2nnc(SC3CCCC3)n2-c2cccnc2)ccc1-c1ccc(S(C)(=O)=O)cc1`, the activity change, negative = inhibition in assay [1] was -0.523%; in assay [2], -10.5%; in assay [3], 0.554%; in assay [4] it was -34.6%; in assay [5], -9.6%.

In the case of `CN(CCCN1C(=O)c2cc3occc3n2CC1(C)C(=O)NC1CCCCC1)C1CCCCC1` (stereo not given), the activity change, negative = inhibition in assay [1] was 1.55%; in assay [2], 0%; in assay [3], -2.95%; in assay [4], 11%; in assay [5], 0.721%.

For the compound `CNC(=O)c1ccc(C)c(-n2c(C)cc(OCc3ccc(F)cc3F)c(Br)c2=O)c1`, the activity change, negative = inhibition in assay [1] is -6.03%; in assay [2], -5.3%; in assay [3], 3.06%; in assay [4], -19.7%; in assay [5] it was -11.3%.

On to `COc1ccccc1NC(=O)Cn1c(=O)oc2cc(S(=O)(=O)N3CC(C)CC(C)C3)ccc21` (stereo not given), for which the activity change, negative = inhibition in assay [1] is 6.32%; in assay [2] it was 0.419%; in assay [3], 1.4%; in assay [4], 0.863%; in assay [5] it was -0.6%.

Regarding `Cc1ccc(S(=O)(=O)Cc2noc([C@@H]3C[C@@H](O)CN3Cc3cccc(C#N)c3)n2)cc1`, the activity change, negative = inhibition in assay [1] is -1.95%; in assay [2], -0.403%; in assay [3] it was 1.62%; in assay [4], -4.73%; in assay [5], 1.96%.

Take `CC(C)N1CCC(N2C[C@@H](CO)[C@H](c3nc(C4CC4)no3)C2)CC1`: the activity change, negative = inhibition in assay [1] is -1.42%; in assay [2], -3.66%; in assay [3], -16.8%; in assay [4], -2.13%; in assay [5], -0.814%.

For the compound `CC(C)S(=O)(=O)c1ccc2nccc(Nc3ccc4scnc4c3)c2c1`, the activity change, negative = inhibition is -3.06% in assay [1]; 1.38% in assay [2]; -6.36% in assay [3]; -21.3% in assay [4]; -7.48% in assay [5].

Take `OC[C@@H]1CNC[C@H]1C1CCN(Cc2ccsc2)CC1`: the activity change, negative = inhibition in assay [1] is -5.33%; in assay [2], -12.7%; in assay [3], -10.7%; in assay [4] it was -11.1%; in assay [5] it was -5.77%.

Consider `CCCN(CCc1ccccc1)C1CCc2c(O)cccc2C1` (stereo not given), for which the activity change, negative = inhibition in assay [1] was 5.15%; in assay [2], 10.1%; in assay [3], -0.364%; in assay [4], -3.4%; in assay [5], 9.09%.

On to `Cc1ccsc1CN1CCc2nc(N3CCOCC3)[nH]c(=O)c2CC1`, for which the activity change, negative = inhibition in assay [1] was -5.51%; in assay [2], -5.17%; in assay [3], -2.69%; in assay [4] it was -11.5%; in assay [5], -4.91%.

Regarding `N.N.N.N.N.N.N.N.N.N.N.N.N.N.O.O.[Ru+4].[Ru+5].[Ru+5]`, the activity change, negative = inhibition was -69.5% in assay [1]; -7.11% in assay [2]; -15.1% in assay [3]; -18.6% in assay [4]; -11.2% in assay [5].

Consider `Cc1ccc(Cn2c(=O)c3ccccc3n3c(SCC(=O)Nc4ccc(C)cc4)nnc23)cc1`, for which the activity change, negative = inhibition worked out at 6.1% in assay [1]; 0% in assay [2]; 14% in assay [3]; 6.35% in assay [4]; 8.51% in assay [5].

Regarding `Cc1noc([C@@H]2CN(Cc3cccnc3)C[C@H]2CO)n1`, the activity change, negative = inhibition is -1.71% in assay [1]; -9.42% in assay [2]; -2.14% in assay [3]; -3.2% in assay [4]; -0.862% in assay [5].
